Data: the RNAGym collection of RNA variant scans (doi:10.7554/elife.90254)
Read counts are not given, so values of variants with three or more changes are uncertain.

B1: OR4K15 (parent)
chain: GUUAACGGUCAUAGGCCAUGGAAACUAGGAGCACCAUUUCGCUGCCAGUGAAGAAAUGAACAAAGAAAAUCUGGGCCAGGCAGGCAUCAAAAGAAAUAGUCUUGCGCUCAACCAGAAAGUCUGUAAUCAUUUUAAGGGUA

Variants of: B1
Test: self-cleavage, relative activity (ratio to wild type); higher = more cleavage; in vitro, sequencing; the parent is a self-cleaving ribozyme
G29A G74A A95G gave a self-cleavage of 0.33.
C25U U49C U57C A92C A111G showed a self-cleavage of 0.
With A27G A54G G74A the self-cleavage was 0.29.
For A24U A36G U43C, the self-cleavage was 1.7.
A24U G79A C107A U120A showed a self-cleavage of 0.01.
U26C A92G A118U gave a self-cleavage of 0.81.
G29C A64G U70C U132A gave a self-cleavage of 0.45.
G28A A94G A126G U127C showed a self-cleavage of 0.87.
U26C A36G U72C gave a self-cleavage of 0.2.
In the case of A27G G48U A90G A94G U102C, the self-cleavage is reported as 1.05.
Variant U26C U43C A98G U122C has a self-cleavage of 0.16.
U26C U57C U70C showed a self-cleavage of 0.37.
With U26C A69G A92G the self-cleavage was 1.09.
With U26C A91G U108C the self-cleavage was 0.02.
A24G U38C A69G gave a self-cleavage of 1.99.
With A27G A64G U70C U103C the self-cleavage was 0.61.
For G28A A33U A118U U131C, the self-cleavage was 0.29.
Work on A27G U38C A67G yielded a self-cleavage of 1.78.
In the case of A24U U102C U130C, the self-cleavage is reported as 1.85.
In the case of A24G U37C U38C, the self-cleavage is reported as 1.82.
With A27U A126U A135G the self-cleavage was 1.5.
G29A A30G A52G A63G A68G gave a self-cleavage of 1.9.
A27G A67G A86G A116G gave a self-cleavage of 0.7.
Work on A24G U72G U87C yielded a self-cleavage of 0.34.
Work on A27C U39A G106U yielded a self-cleavage of 0.03.
Work on A27G U103C A134G yielded a self-cleavage of 0.18.
A27G A51G A91G A111G U127C A129U showed a self-cleavage of 0.
A24G U37C A90C A125G A126G U132C gave a self-cleavage of 0.41.
A24U A95U A98G A116U gave a self-cleavage of 0.13.
A27G A89U A90G A129G showed a self-cleavage of 0.93.
Variant A24G U38A A91G U100C has a self-cleavage of 0.88.
For A24U A56U G119A, the self-cleavage was 1.17.
Variant A27G U43A U49A A98G A134G has a self-cleavage of 0.31.
U26A A55G A91G A116G U131C showed a self-cleavage of 0.39.
U26A A67G U87C G138A gave a self-cleavage of 0.85.
A27G A64G U70A U97C gave a self-cleavage of 1.31.
In the case of G28A U49C A78U, the self-cleavage is reported as 0.39.
With U26C A90G A92U U103C U132C the self-cleavage was 0.19.
For A27U U57C U103C, the self-cleavage was 0.94.
In the case of A24U A78G A110C U130C, the self-cleavage is reported as 0.08.
Variant A24G U37C U72A A82G A86U A95G A140G has a self-cleavage of 0.16.
Variant A24G U49C U72A has a self-cleavage of 0.35.
With U26C A63G A114G the self-cleavage was 0.71.
Work on G28A C46A A78G yielded a self-cleavage of 0.34.
In the case of A24G C46U A60G G138U, the self-cleavage is reported as 1.71.
U26A A52G A62G U100C U132C gave a self-cleavage of 1.22.
Work on A24U U49C A110G yielded a self-cleavage of 0.17.
Work on G28A U120A A135G yielded a self-cleavage of 1.64.
Variant U26C U38A U43A G50C A116G has a self-cleavage of 1.01.
Variant A24U U49C U122C has a self-cleavage of 0.46.
U26C U39A A54G A56G A114G showed a self-cleavage of 0.34.
With A24G U97A G106U the self-cleavage was 0.03.
Variant A24U A118U A126G has a self-cleavage of 0.49.
A24U A96G U97C showed a self-cleavage of 1.28.
With C25U U49C A78U U102C the self-cleavage was 1.31.
A27G A33U U37C A60G showed a self-cleavage of 0.76.
A24G U120C U127C showed a self-cleavage of 1.04.
A27U A36C A62G gave a self-cleavage of 1.43.
Variant C25U U43C A63G A82U A86U A114G has a self-cleavage of 0.
In the case of A27C A64G A90G U130A, the self-cleavage is reported as 1.16.
G29A A96G U130G showed a self-cleavage of 1.51.
For U26C A89G U122A U132C, the self-cleavage was 0.72.
In the case of A24G U43C A116C G138A, the self-cleavage is reported as 0.05.
Variant U26C A27G A30U has a self-cleavage of 0.94.
In the case of G29A U43A U127C, the self-cleavage is reported as 1.31.
A24G U26C U127A gave a self-cleavage of 1.61.
For U26C U39A A54G A118G, the self-cleavage was 1.43.
U26C A60G A94G showed a self-cleavage of 1.53.
With A24G U103C U124A the self-cleavage was 0.45.
For A27U A91G A111U A126G, the self-cleavage was 0.06.
A24G U37A A55G showed a self-cleavage of 1.47.
A27U A33G U108C gave a self-cleavage of 0.03.
C25G A67G A82G A114G gave a self-cleavage of 0.21.
U26A A62G A94C A129U gave a self-cleavage of 0.22.
Work on U26C A33G A55G A66G A69G A95G yielded a self-cleavage of 1.54.
With U26C A54G A64G A116G U120C the self-cleavage was 0.34.
U26C U49C A56G A59G U103C A118G gave a self-cleavage of 0.08.
U26C A47G A64G U70C A126G U131C showed a self-cleavage of 0.13.
Work on G29A A51U A91G U122C yielded a self-cleavage of 0.37.
Variant A27U C107G A117G has a self-cleavage of 0.01.
In the case of U26C A51U A60G A91U, the self-cleavage is reported as 0.
Work on A27G U39C G79A yielded a self-cleavage of 0.12.
With A24U G83A A95G A96G the self-cleavage was 2.4.
With A24G C46U A47G the self-cleavage was 0.63.
Work on A27G A91G A118G yielded a self-cleavage of 0.42.
Work on A24U U108C A140G yielded a self-cleavage of 0.
A27U U39A U57C A78C A98G gave a self-cleavage of 0.18.
G28A A47U U70C A94G gave a self-cleavage of 0.45.
C25A A60G U108C A118G showed a self-cleavage of 0.
U26C U108C A117G U127C showed a self-cleavage of 0.
In the case of U26C U122C C128A, the self-cleavage is reported as 1.09.
A27C A82G A135G gave a self-cleavage of 0.65.
Work on C25A A36G U97C U130G yielded a self-cleavage of 0.25.
Work on A24G C46U A59G U133C yielded a self-cleavage of 1.23.
Variant U26C A60G A63U A111G has a self-cleavage of 0.05.
With U26C A51G A135U the self-cleavage was 1.9.
In the case of U26A A68G C105U A126G, the self-cleavage is reported as 0.11.
U26A A59U U70C gave a self-cleavage of 0.84.
Variant U26A A47U U49C A54G A60U has a self-cleavage of 0.41.
G28A A52G A59G showed a self-cleavage of 0.94.
In the case of A27G G44A U49A A55G, the self-cleavage is reported as 1.78.
A27G U43G A51G A63G U108C showed a self-cleavage of 0.04.
Work on A24G U38C A140G yielded a self-cleavage of 1.84.
A24U U70A A98G gave a self-cleavage of 0.23.
Variant A27G A33U A118G has a self-cleavage of 1.59.
In the case of A27G A36U A56G A86G U108C, the self-cleavage is reported as 0.
Work on A24G U72C A95G yielded a self-cleavage of 0.26.
G29C A91G A92U A117G gave a self-cleavage of 2.75.
In the case of A27U U38C A68G U122C, the self-cleavage is reported as 1.4.
Variant U26C A30G A64G G106A has a self-cleavage of 0.04.
Variant A27G U49C G74U A116G U132C has a self-cleavage of 0.11.
For A27G U37C A59G C77U U87C, the self-cleavage was 1.62.
With U26C A27G A89U the self-cleavage was 1.43.
For C25G A51G A68G A117G U120C, the self-cleavage was 0.85.
For A24G A116U A117G, the self-cleavage was 0.36.
With U26G A55G A56G the self-cleavage was 1.26.
Variant U26A U38A A114U U132C has a self-cleavage of 0.01.
With A27G A114U A117U A125G the self-cleavage was 0.02.
A27U G29U U37C A69G A89G G137U gave a self-cleavage of 1.49.
Work on A24G C32A U37C A56U yielded a self-cleavage of 0.41.
For A24U A110G U122C, the self-cleavage was 0.09.
Variant C25U A64G U132C has a self-cleavage of 1.02.
In the case of A24U A96U A111G, the self-cleavage is reported as 0.04.
For C25U A92U A96G, the self-cleavage was 1.71.
U26C U37C A125G showed a self-cleavage of 0.45.
Variant U26C A33C A90G U130C has a self-cleavage of 0.88.
In the case of U26C A91G A96G U132C, the self-cleavage is reported as 1.56.
For A27G A52G A56C, the self-cleavage was 1.06.
Work on A27G A64G A94G A96U A111G U124C yielded a self-cleavage of 0.01.
For U26C G75C A129G, the self-cleavage was 0.08.
Work on A24G C40U A47U yielded a self-cleavage of 0.9.
For A24G G93A U132C, the self-cleavage was 0.98.
In the case of U26C A47G A78U, the self-cleavage is reported as 0.37.
A24G G28A U97A showed a self-cleavage of 1.81.
With A24U A52G A56C A59G the self-cleavage was 0.78.
Variant U26C A86G C121U has a self-cleavage of 1.26.
For A27G A68G C113U U122A, the self-cleavage was 0.01.
A24G G84A A111G A116U A118G U122C showed a self-cleavage of 0.01.
Work on C25A U37C A52G U57C U133A yielded a self-cleavage of 1.95.
Work on A27C A51G U103C U120C yielded a self-cleavage of 0.44.
A24G U133G G137U showed a self-cleavage of 0.58.
In the case of A27G A54G A60G A86U A140U, the self-cleavage is reported as 1.09.
For A27G U70C A114C, the self-cleavage was 0.04.
In the case of A24G U57C U102A A114G A118U, the self-cleavage is reported as 0.
With A24U A64G A92G the self-cleavage was 1.15.
U26C A96G U122C showed a self-cleavage of 2.05.
For U26C A33U U49C A78G A98U, the self-cleavage was 0.26.
For A24G U39C A90G U108G, the self-cleavage was 0.02.
Work on A27G A68G U132A yielded a self-cleavage of 1.4.
Variant A24G C34U A55G U57C A67G A94G has a self-cleavage of 0.89.
Work on U26C U57A A98G U120C yielded a self-cleavage of 0.13.
A24U A68U U108A U122A showed a self-cleavage of 0.03.
Variant A24G U43A A56G A82C has a self-cleavage of 0.36.
In the case of A24G U49C A62G A64G, the self-cleavage is reported as 1.27.
For A24G A111G U133C, the self-cleavage was 0.05.
A27G A67G A94G gave a self-cleavage of 0.85.
For A24U U43C U70C U108C, the self-cleavage was 0.01.
In the case of A24U A56G A86G U132C, the self-cleavage is reported as 1.22.
Variant U26A A51G A96G has a self-cleavage of 0.75.
For A27G U37C A51G A110G, the self-cleavage was 0.11.
For A27G U87A U108C, the self-cleavage was 0.03.
With U26C A36G U39C A126G U130C the self-cleavage was 0.94.
A24G G44A A51G A78U gave a self-cleavage of 0.65.
Variant A24G U38A A68G has a self-cleavage of 1.27.
Variant U26C U87C A89G A91G U103C G119A U130C has a self-cleavage of 0.03.
U26C A62U A117U A126G gave a self-cleavage of 0.56.
U26C U108C A126G U130C gave a self-cleavage of 0.
